This note sets out measurements from the BET-seq Pho4 binding data (Le et al. 2018).

The list shows a part of the results. Values were computed here from the reads of four pooled replicates and scatter widely.

This assay concerns the target T1, Pho4 (S. cerevisiae) (UniProt P07270).
T1 sequence: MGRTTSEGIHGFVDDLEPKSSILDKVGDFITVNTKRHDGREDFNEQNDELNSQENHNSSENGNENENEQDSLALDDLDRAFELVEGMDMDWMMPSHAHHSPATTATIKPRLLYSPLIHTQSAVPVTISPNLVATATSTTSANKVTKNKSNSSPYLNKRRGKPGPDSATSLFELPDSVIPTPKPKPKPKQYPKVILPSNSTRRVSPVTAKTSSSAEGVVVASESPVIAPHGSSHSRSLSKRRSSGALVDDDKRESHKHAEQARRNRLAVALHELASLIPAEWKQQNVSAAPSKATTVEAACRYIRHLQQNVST
The assay is described as follows: relative binding free energy (BET-seq); higher = weaker binding. The settings on record: reference: library average.
ATTTTCACGTGTTGTC: the “relative binding free energy” value is 0.29 kcal/mol. As for CTGTGCACGTGAGGGG, the “relative binding free energy” value worked out at 0.2 kcal/mol.

As for TGAATCACGTGATAGG, the “relative binding free energy” value was found to be 0.27 kcal/mol. Under GTTCGCACGTGTTCGT stands 0.04 kcal/mol; under TAGGACACGTGATGGA, 0.15 kcal/mol; under GCAGTCACGTGTGAGT, 0.27 kcal/mol. Under TTCTTCACGTGAGCGT stands 0.3 kcal/mol.

On to TTTTTCACGTGTCTCG, for which the “relative binding free energy” value stood at 0.3 kcal/mol. To TTTGGCACGTGAATCA belongs -0.02 kcal/mol; to GCGTTCACGTGGTCTG, 0.22 kcal/mol. For the sequence AGGTGCACGTGATTAA, the “relative binding free energy” value was -0.12 kcal/mol.

For the sequence TTGGACACGTGGGTCG, the “relative binding free energy” value was -0.1 kcal/mol. To ATTGGCACGTGGAGGC belongs 0.04 kcal/mol; to GTCATCACGTGGTGTC, 0.26 kcal/mol. Turning to GCGGACACGTGTGTTA, the “relative binding free energy” value came to 0.17 kcal/mol. Under TTACTCACGTGATTTT stands 0.2 kcal/mol.

With CTTGGCACGTGAGATT, the “relative binding free energy” value came out at 0.14 kcal/mol. Turning to ACGTACACGTGAGGTG, the “relative binding free energy” value amounted to 0.08 kcal/mol.

Regarding TGAAGCACGTGTAAGT, the “relative binding free energy” value was -0.06 kcal/mol. In the case of CGATGCACGTGTGTGA, the “relative binding free energy” value is -0.05 kcal/mol. For the sequence CTTGTCACGTGGGTGG, the “relative binding free energy” value was -0.08 kcal/mol. For the sequence AGAATCACGTGAAGGT, the “relative binding free energy” value amounted to 0.38 kcal/mol. Consider AGCAGCACGTGGGTTT, for which the “relative binding free energy” value was -0.24 kcal/mol. For the sequence TCGTTCACGTGGTGGA, the “relative binding free energy” value stood at 0.2 kcal/mol. For the sequence CCCTTCACGTGTGGGG, the “relative binding free energy” value amounted to 0.34 kcal/mol. Under TCGTACACGTGCGTGT stands -0.06 kcal/mol; under GGAATCACGTGCTAGG, 0.11 kcal/mol; under TTCTGCACGTGTTAGG, -0.02 kcal/mol. To GGTTACACGTGTGTTT belongs 0.18 kcal/mol; to GGAGGCACGTGCTTGG, -0.09 kcal/mol. With CGTTTCACGTGGAGGG, the “relative binding free energy” value was determined as 0.29 kcal/mol. Take AGTGTCACGTGCGATG: the “relative binding free energy” value was 0.2 kcal/mol.

On to AGAAACACGTGTGTTA, for which the “relative binding free energy” value turned out to be 0 kcal/mol. To CGGGTCACGTGGAGTG belongs 0.05 kcal/mol; to GACGGCACGTGAGGGG, 0.31 kcal/mol. Under TTCCGCACGTGGGTAT stands -0.11 kcal/mol; under AGTGTCACGTGGTAGT, 0.08 kcal/mol.

For GGGTGCACGTGAGTTG, the “relative binding free energy” value turned out to be 0.28 kcal/mol. In the case of GGGTTCACGTGGGCAC, the “relative binding free energy” value stood at 0.27 kcal/mol. Regarding TTCGTCACGTGAAGTT, the “relative binding free energy” value was determined as 0.3 kcal/mol. To GCATGCACGTGTTATG belongs 0.01 kcal/mol; to GGTTCCACGTGGGGGC, -0.04 kcal/mol; to TTTGTCACGTGCACGT, 0.2 kcal/mol. With AGTATCACGTGGCTTT, the “relative binding free energy” value stood at 0.1 kcal/mol. Consider TAGGGCACGTGCATTT, for which the “relative binding free energy” value was -0.05 kcal/mol. As for ATTGGCACGTGTGGAA, the “relative binding free energy” value was -0.07 kcal/mol. TGTTGCACGTGGTTTA: the “relative binding free energy” value is 0 kcal/mol. With GGTCTCACGTGTGGGA, the “relative binding free energy” value came to 0.4 kcal/mol.

For CTAGTCACGTGTGGTT, the “relative binding free energy” value came out at 0.06 kcal/mol. Take CGGGTCACGTGTTTTT: the “relative binding free energy” value is 0.13 kcal/mol. For ACTTGCACGTGGGATT, the “relative binding free energy” value is -0.02 kcal/mol. Turning to ATTAGCACGTGTAATT, the “relative binding free energy” value was determined as 0.02 kcal/mol. Regarding TTTTTCACGTGGTAGC, the “relative binding free energy” value was 0.21 kcal/mol. ACTGTCACGTGAGAGG: the “relative binding free energy” value turned out to be 0.19 kcal/mol. As to GGGGTCACGTGGACGC, the “relative binding free energy” value came to 0.21 kcal/mol. Take ATGTCCACGTGATTGG: the “relative binding free energy” value turned out to be 0.07 kcal/mol.

TTTGGCACGTGGGATA: the “relative binding free energy” value was -0.18 kcal/mol.
